# PubChem BioAssay (Tox21)
# Several values for one entry are separate records, joined by “and”; a condition that tells them apart may be missing. Identical values can stand only once. The shares of active, inactive and inconclusive entries below differ from those in the screen. For part of these data: Potencies of inconclusive entries are doubtful fits and often do not repeat. Activity calls are given as the source filed them. Unless noted, calls follow the shape of the dose curve; as a rule, active = well fitted curve in the direction sought with a large enough effect in the repeat runs; inconclusive = weak or mixed curves; inactive = no such curve, though single readings can be large; an effect the other way counts as inactive or inconclusive.
# Tests used:
# [1] = qHTS assay to identify small molecule agonists of the endoplasmic reticulum stress response signaling pathway - cell viability counter screen (AID 1159517; calls by dose curve; also: nearly all actives have a fitted effect of over 50% in size)
# How it was run: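 HeLa cells carrying an ESRE-driven beta-lactamase reporter receive compound for 5 hr at 37 C. Cell viability is then gauged with CellTiter-Glo by luminescence, 30 min at room temperature.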
# [2] = qHTS assay to identify small molecule antagonists of the retinoid-related orphan receptor gamma (ROR-gamma) signaling pathway - cell viability counter screen (AID 1159520); also: nearly all actives have a fitted effect of over 50% in size
# How it was run: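 Cytotoxicity was read from cellular ATP (CellTiter-Glo luminescence) after 16 hr at 37 C with 1 uM doxycycline induction. The inducer was added 2 hr after compound transfer to Tet-on ROR gamma CHO cells.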
# [3] = molecular target: Nuclear receptor ROR-gamma (Homo sapiens) (UniProt P51449); test: qHTS assay to identify small molecule antagonists of the retinoid-related orphan receptor gamma (ROR-gamma) signaling pathway (AID 1159521; also: nearly all actives have a fitted effect of over 50% in size)
# How it was run: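 Decreased RORE-driven luciferase luminescence indicates antagonism. Tet-on RORγ CHO cells received compound, then 1 uM final doxycycline 2 h later; signal read after 16 h incubation.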
# [4] = qHTS assay to identify small molecule agonists of the AP-1 signaling pathway - cell viability counter screen (AID 1159525; calls by dose curve; also: nearly all actives have a fitted effect of over 55% in size)
# How it was run: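 Luminescent ATP readout (Cell Titer Glo, 30 min RT), normalised to DMSO and tetra n-octyl ammonium bromide controls. Cells were ME-180 AP-1-bla in 0.5% dialyzed FBS Opti-MEM, with a 5 h, 37 °C compound exposure.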
# [5] = qHTS assay to identify small molecule agonists of the AP-1 signaling pathway (AID 1159526; calls by dose curve); conditions: ME-180 (cervical carcinoma) AP-1-bla reporter, beta-lactamase FRET ratio, 5 h; activation: at 76.8 µM (top of the series) unless noted
# [6] = molecular target: Retinoic acid receptor RXR-alpha (Homo sapiens) (UniProt P19793); test: qHTS assay to identify small molecule agonists of the RXR signaling pathway (AID 1159527; calls by dose curve; also: nearly all actives have a fitted effect of over 35% in size; as to activation: % is scaled to controls: 0 for no effect and ±100 for the full control effect); conditions: HEK293T RXRa-UAS-bla, beta-lactamase ratio, 16 h; activation: at 76.8 µM (top of the series) unless noted
# How it was run: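 16 hr incubation of compound-treated RXR-alpha-UAS-bla HEK 293T cells (2% charcoal-stripped FBS, 37 C) preceded a 2 hr room-temperature LiveBLAzer FRET substrate step and blue/green fluorescence measurement.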
# [7] = qHTS assay to identify small molecule agonists of the RXR signaling pathway - cell viability counter screen (AID 1159529); also: nearly all actives have a fitted effect of over 50% in size
# How it was run: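 In this parallel viability measure, GeneBLAzer RXR-alpha HEK 293T cells (2% charcoal-stripped FBS) were given a 5 hr preincubation, treated with compounds 16 hr at 37 C, and read by CellTiter-Glo luminescence.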
# [8] = qHTS assay to identify small molecule antagonists of the retinoid acid receptor (RAR) signaling pathway - cell viability counter screen (AID 1159551); also: nearly all actives have a fitted effect of over 35% in size
# How it was run: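 C3RL4 RARE-luciferase cells, 1,000/well, incubated overnight, then dosed with compound plus 1 uM retinol (final). After 6 hr at 37 C, viability read by CellTiter-Glo ATP luminescence following 30 min at room temperature.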
# [9] = qHTS assay to identify small molecule antagonists of the estrogen related receptor signaling pathway with the pleiotropic PPARgamma coactivator (PGC) cell viability counter screen (AID 1224822)
# How it was run: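 PGC/ERR cells rested 6 h, then compound-treated 17.5 h at 37 C. CellTiter-Fluor added for 30 min at 37 C, viability measured by fluorescence intensity.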
# [10] = qHTS assay to identify small molecule antagonists of the estrogen related receptor (ERR) signaling pathway from Tox21 library - cell viability counter screen (AID 1224834); also: nearly all actives have a fitted effect of over 30% in size
# How it was run: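 ERR reporter cells, 2,000 per well, rested 6 h, then exposed to compound in DMSO for 17.5 hours at 37 C. Viability read as fluorescence after 30 min with CellTiter-Fluor.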
# [11] = qHTS assay to identify small molecule agonists of the retinoic acid receptor (RAR) signaling pathway (AID 1159553); conditions: C3RL4 RARE luciferase reporter, agonist, 6 h; as to activation: % is scaled to controls: 0 for no effect and ±100 for the full control effect
# How it was run: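 C3RL4 RARE-luciferase cells were seeded at 1,000/well and grown overnight at 37 C, then exposed to compounds for 6 hr at 37 C, 5% CO2. Luciferase reagent was added and luminescence was read after 30 min at room temperature.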
# [12] = qHTS assay to identify small molecule agonists of the constitutive androstane receptor (CAR) signaling pathway - cell viability counter screen (AID 1224836); also: nearly all actives have a fitted effect of over 45% in size
# How it was run: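 Using CellTiter-Fluor, viability of HepG2 cells harbouring hCAR and CYP2B6-2.2kb was measured following 23 h incubation with a 15-concentration compound series plus PK11195 (0.75 uM final).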
# [13] = qHTS assay to identify small molecule antagonists of the retinoic acid receptor (RAR) signaling pathway (AID 1159552; also: nearly all actives have a fitted effect of over 50% in size)
# How it was run: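 C3RL4 RARE-luc cells, overnight plating; retinol 1 uM final added right after compound; 6 hr 37 C; luciferase read at 30 min RT.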
# [14] = molecular target: Luciferin 4-monooxygenase (Photinus pyralis) (UniProt P08659); test: qHTS assay to identify small molecule inhibitors of firefly luciferase (AID 1224835); also: nearly all actives have a fitted effect of over 25% in size
# How it was run: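 Inhibition of purified Photinus luciferase is measured by luminescence. Substrate levels (D-luciferin, ATP) sit at their KM values. Each compound is tested in a concentration series.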
# [15] = qHTS assay to identify small molecule antagonists of the constitutive androstane receptor (CAR) signaling pathway - cell viability counter screen (AID 1224837); also: nearly all actives have a fitted effect of over 45% in size
# How it was run: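 HepG2 cells stably carrying hCAR and CYP2B6-2.2kb reporter, stimulated with 50 nM CITCO and compounds at 15 concentrations for 23 h at 37 C. Viability measured by CellTiter-Fluor fluorescence.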
# [16] = activation: at 73.3 µM (top of the series) unless noted
# Potency is read from the fitted curve at half-maximal effect; tags tell the direction and shape of the fitted curve or compound fluorescence and quenching.
# Chain of UniProt P19793 (P19793 whole entry, looked up): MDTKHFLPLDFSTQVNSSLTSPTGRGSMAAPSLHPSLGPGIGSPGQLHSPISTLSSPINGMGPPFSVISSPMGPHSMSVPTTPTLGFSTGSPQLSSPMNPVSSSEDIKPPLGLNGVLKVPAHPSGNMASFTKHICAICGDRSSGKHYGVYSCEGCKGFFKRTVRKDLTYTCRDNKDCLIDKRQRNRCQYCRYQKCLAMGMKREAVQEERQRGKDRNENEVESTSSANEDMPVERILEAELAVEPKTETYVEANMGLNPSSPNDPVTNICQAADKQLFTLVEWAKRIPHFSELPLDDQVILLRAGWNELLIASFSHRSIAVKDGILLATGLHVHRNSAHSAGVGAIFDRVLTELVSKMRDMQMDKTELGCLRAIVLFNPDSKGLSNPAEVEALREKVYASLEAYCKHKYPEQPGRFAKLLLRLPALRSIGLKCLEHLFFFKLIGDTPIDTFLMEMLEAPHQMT
# Chain of UniProt P08659 (P08659 whole entry, looked up): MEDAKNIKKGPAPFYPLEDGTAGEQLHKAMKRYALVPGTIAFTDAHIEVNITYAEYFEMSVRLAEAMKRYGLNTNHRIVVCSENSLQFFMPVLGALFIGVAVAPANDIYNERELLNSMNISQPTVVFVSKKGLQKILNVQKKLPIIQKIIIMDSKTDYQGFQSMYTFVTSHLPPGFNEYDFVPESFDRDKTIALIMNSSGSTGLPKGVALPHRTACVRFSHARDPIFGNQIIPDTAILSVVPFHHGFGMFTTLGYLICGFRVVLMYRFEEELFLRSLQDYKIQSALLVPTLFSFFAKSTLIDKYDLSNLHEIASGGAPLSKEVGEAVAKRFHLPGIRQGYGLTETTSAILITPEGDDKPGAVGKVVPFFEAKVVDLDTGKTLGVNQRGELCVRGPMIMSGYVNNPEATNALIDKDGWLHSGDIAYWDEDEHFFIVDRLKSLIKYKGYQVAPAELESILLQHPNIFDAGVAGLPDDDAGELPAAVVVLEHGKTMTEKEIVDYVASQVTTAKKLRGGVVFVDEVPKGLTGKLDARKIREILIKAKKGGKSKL
Structure (SMILES),Potency [1],Potency [2],Potency [3],Potency [4],Potency [5],Potency [6],Potency [7],Potency [8],activation [6],Potency [9],Potency [10],"Potency [11, 16]",Potency [12],Potency [13],Potency [14],Potency [15],"activation [11, 16]",activation ([11]; at 73.3 µM (top of the series))
CCCCCCCCCCCCCCCC[N+](C)(C)C,active: 23.7 µM and active: 43.6 µM and inconclusive: 23.9 µM [cytotoxic],active: 29.5 µM and active: 61.1 µM and active: 29.8 µM,active: 7.42 µM and active: 12.2 µM and active: 5.96 µM,"inconclusive: 26.6 µM [cytotoxic, single point] and active: 49 µM and active: 26.8 µM","inconclusive: 26.6 µM [cytotoxic, single point] and inconclusive: 54.9 µM [cytotoxic] and inconclusive: 23.9 µM [cytotoxic, single point]","inconclusive: 26.6 µM [cytotoxic, single point] and inconclusive: 49 µM [cytotoxic, partial curve] and inconclusive: 26.8 µM [cytotoxic, single point]",active: 10.6 µM and active: 24.5 µM and active: 12 µM,"inconclusive: 29.5 µM [cytotoxic, single point] and inconclusive: 68.6 µM [cytotoxic, single point] and inconclusive: 29.8 µM [cytotoxic]",–,–,–,–,–,–,–,–,–,–
CCOC(=O)CC(SP(=S)(OC)OC)C(=O)OCC (stereo not drawn),"inconclusive: 0.776 µM [cytotoxic, full curve]","inconclusive: 77 µM [cytotoxic, partial curve, poor fit]","inconclusive: 9.69 µM [inhibitor, partial curve, poor fit]",–,inconclusive: 49 µM,inconclusive: 19.5 µM,inconclusive: 43.6 µM [cytotoxic],inactive,inconclusive: -17.2% [at 35.3 µM],inconclusive: 43.3 µM [cytotoxic],"inconclusive: 68.6 µM [cytotoxic, single point]",–,–,–,–,–,–,–
C=CC(=O)OCC(COC(=O)C=C)(COC(=O)C=C)COC(=O)C=C,active: 12.3 µM,"inconclusive: 2.43 µM [cytotoxic, full curve, poor fit]",active: 3.44 µM,"inconclusive: 38.9 µM [cytotoxic, partial curve]","inconclusive: 4.36 µM [cytotoxic, full curve]",inconclusive: 4.9 µM [inhibitor],active: 17.4 µM,"inconclusive: 68.6 µM [cytotoxic, single point]",–,–,–,active: 1.93 µM,active: 15.4 µM,–,–,–,–,–
COC12CC[C@@]3(C[C@@H]1C(C)(O)C(C)(C)C)[C@H]1Cc4ccc(O)c5c4[C@@]3(CCN1CC1CC1)[C@H]2O5 (stereo partly drawn),inconclusive: 54.6 µM [cytotoxic],active: 60.7 µM,active: 54.1 µM,active: 54.6 µM,"inconclusive: 43.4 µM [falling, partial curve]","inconclusive: 61.2 µM [cytotoxic, single point]",–,active: 60.7 µM,–,–,–,"inconclusive: 30.4 µM [inhibitor, full curve]",active: 43 µM,active: 54.1 µM,–,–,–,–
O=C1C(Cl)=C(Cl)C(=O)C(Cl)=C1Cl,"active: 54.8 µM and inconclusive: 30.9 µM [cytotoxic, partial curve, poor fit]","inconclusive: 21.7 µM [cytotoxic, full curve]",active: 12.1 µM and active: 30.6 µM,"inconclusive: 54.8 µM [cytotoxic, single point]","inconclusive: 24.5 µM [falling, partial curve] and inconclusive: 11 µM [falling, partial curve]","inconclusive: 24.5 µM [fluorescent, single point]",inconclusive: 43.5 µM [cytotoxic] and active: 38.9 µM,–,inconclusive: -28.3%,–,–,"inconclusive: 10.8 µM [activator, partial curve] and inconclusive: 21.7 µM [activator, partial curve, poor fit]","inconclusive: 68.3 µM [cytotoxic, single point] and inconclusive: 61.1 µM [cytotoxic, partial curve, poor fit]",–,active: 31.6 µM and active: 15.9 µM,"inconclusive: 60.9 µM [cytotoxic, partial curve]",–,–
OCC(c1ccc(Cl)cc1)c1ccc(Cl)cc1,"inconclusive: 54.9 µM [cytotoxic, single point]","inconclusive: 48.6 µM [cytotoxic, partial curve]","inconclusive: 68.6 µM [inhibitor, single point]",active: 49 µM,inconclusive: 54.9 µM,–,–,inconclusive: 68.6 µM [cytotoxic],–,–,–,inconclusive: 68.6 µM [inhibitor],"inconclusive: 77 µM [cytotoxic, partial curve, poor fit]",active: 43.3 µM,–,"inconclusive: 77 µM [cytotoxic, partial curve, poor fit]",–,–
Sc1ccccc1Cl,"inconclusive: 0.0849 µM [cytotoxic, single point]",–,–,–,–,–,–,–,–,–,–,–,–,–,–,–,–,–
Oc1ccc(C2(c3ccc(O)cc3)CCCCC2)cc1,active: 46.4 µM,inconclusive: 65 µM [cytotoxic],inconclusive: 65 µM [inhibitor],"inconclusive: 36.8 µM [cytotoxic, partial curve]","inconclusive: 41.3 µM [falling, partial curve]",inconclusive: 18.5 µM [inhibitor],active: 36.8 µM,–,–,–,–,"inconclusive: 65 µM [inhibitor, partial curve, poor fit]",inconclusive: 51.6 µM [cytotoxic],–,–,"inconclusive: 46 µM [cytotoxic, partial curve]",–,–
CCC(C)(C)c1ccc(O)cc1,"inconclusive: 2 nM [cytotoxic, full curve, poor fit] and inconclusive: 0.8 nM [cytotoxic]","inconclusive: 38.6 µM [cytotoxic, partial curve, poor fit]",inactive,–,inconclusive: 55.5 µM and inconclusive: 43.6 µM,"inconclusive: 9.77 µM [activator, full curve]","inconclusive: 49.5 µM [cytotoxic, single point] and inconclusive: 38.9 µM [cytotoxic, partial curve]","inconclusive: 61.8 µM [cytotoxic, partial curve, poor fit]",–,–,"inconclusive: 69.3 µM [cytotoxic, single point]",–,–,–,"inconclusive: 38.9 µM [inhibitor, single point]",–,–,–
O=C1C2(Cl)C3(Cl)C4(Cl)C(Cl)(Cl)C5(Cl)C3(Cl)C1(Cl)C5(Cl)C24Cl (stereo not drawn),"active: 48.2 µM and inconclusive: 52.6 µM [cytotoxic, single point]",active: 21.3 µM and active: 46.5 µM,active: 12 µM and active: 29.3 µM,"active: 30.4 µM and inconclusive: 52.6 µM [cytotoxic, single point]",inconclusive: 24.1 µM [cytotoxic] and inconclusive: 46.9 µM [cytotoxic],"inconclusive: 30.4 µM [cytotoxic, partial curve] and inconclusive: 41.8 µM [cytotoxic, partial curve]",active: 24.1 µM and active: 41.8 µM,"active: 47.8 µM and inconclusive: 73.7 µM [cytotoxic, single point]",–,–,active: 53.6 µM and active: 58.5 µM,inconclusive: 30.1 µM [inhibitor] and inconclusive: 65.7 µM [inhibitor],–,–,–,–,–,–
ClC(Cl)=C(c1ccc(Cl)cc1)c1ccc(Cl)cc1,"inconclusive: 63.2 µM [cytotoxic, partial curve, poor fit] and active: 54.9 µM","inconclusive: 62.6 µM [cytotoxic, partial curve]","active: 62.6 µM and inconclusive: 2.17 µM [inhibitor, single point]","active: 44.7 µM and inconclusive: 54.9 µM [cytotoxic, single point]",inconclusive: 44.7 µM and inconclusive: 49 µM [cytotoxic],"inconclusive: 7.09 µM [inhibitor, full curve] and inconclusive: 7.76 µM [inhibitor, partial curve, poor fit]",active: 56.3 µM and active: 43.6 µM,–,–,–,–,–,–,–,–,–,–,–
O=C(Nc1ccc(Br)cc1)c1cc(Br)cc(Br)c1O,active: 8.68 µM and active: 1.95 µM and active: 5.35 µM,"inconclusive: 23.7 µM [cytotoxic, partial curve]","inconclusive: 8.41 µM [inhibitor, partial curve, poor fit]","inconclusive: 19.5 µM [cytotoxic, partial curve] and inconclusive: 21.3 µM [cytotoxic, partial curve, poor fit]",–,–,"inconclusive: 1.38 µM [cytotoxic, full curve, poor fit] and inconclusive: 674 nM [cytotoxic, full curve, poor fit]",inconclusive: 61.1 µM [cytotoxic] and inconclusive: 33.5 µM [cytotoxic],–,–,–,"inconclusive: 54.5 µM [activator, partial curve]","inconclusive: 15.4 µM [cytotoxic, full curve]",–,–,"inconclusive: 27.2 µM [cytotoxic] and inconclusive: 19.3 µM [cytotoxic, full curve] and inconclusive: 11.9 µM [cytotoxic, partial curve]",inconclusive: 5.22% [phenotype inactive],inactive: 14.4%
